30 compounds from US9714221B1 (priority 2016, dated 2017) can be followed below.

This assay has as its system MCF7 cells (breast tumor cells) WT. Briefly: cells. The following applies: Homo sapiens, read-out: proliferation MCF7 (WT) IC50 (nM).
`Oc1ccc2c(c1)CCCC(c1cnc(C(F)(F)F)nc1)=C2c1ccc(O[C@H]2CCN(CCCF)C2)cc1` [Example 84, 5-[4-[(3S)-1-(3-fluoropropyl)pyrrolidin-3-yl]oxyphenyl]-6-[2-(trifluoromethyl)pyrimidin-5-yl]-8,9-dihydro-7H-benzo[7]annulen-2-ol]: the IC50 was 0.7 nM.

On to `Oc1ccc2c(c1)CCCC(c1ccc(C(F)(F)F)nc1Cl)=C2c1ccc(O[C@H]2CCN(CCCF)C2)cc1` [Example 155, 6-[2-chloro-6-(trifluoromethyl)-3-pyridyl]-5-[4-[(3S)-1-(3-fluoropropyl)pyrrolidin-3-yl]oxyphenyl]-8,9-dihydro-7H-benzo[7]annulen-2-ol], for which the IC50 is 0.1 nM.

In the case of `Oc1ccc2c(c1)CCCC(c1ccc(OC(F)F)c(F)c1)=C2c1ccc(O[C@H]2CCN(CCCF)C2)cc1` [Example 66, 6-[4-(difluoromethoxy)-3-fluoro-phenyl]-5-[4-[(3S)-1-(3-fluoropropyl)pyrrolidin-3-yl]oxyphenyl]-8,9-dihydro-7H-benzo[7]annulen-2-ol], the IC50 is 0.4 nM. Regarding `Oc1ccc2c(c1)CCCC(c1ccc(C(F)(F)F)nc1)=C2c1ccc(O[C@H]2CCN(CCCF)C2)cc1` [Example 68, 5-[4-[(3S)-1-(3-fluoropropyl)pyrrolidin-3-yl]oxyphenyl]-6-[6-(trifluoromethyl)-3-pyridyl]-8,9-dihydro-7H-benzo[7]annulen-2-ol], the IC50 came out at 0.2 nM.

Regarding `Oc1ccc2c(c1)CCCC(c1ccc(Cl)cc1Cl)=C2c1ccc(O[C@H]2CCN(CCCF)C2)cc1` [Example 18, 6-(2,4-dichlorophenyl)-5-[4-[(3S)-1-(3-fluoropropyl)pyrrolidin-3-yl]oxyphenyl]-8,9-dihydro-7H-benzo[7]annulen-2-ol], the IC50 was 0.7 nM. On to `Oc1ccc2c(c1)CCCC(C1=CCC(F)(F)CC1)=C2c1ccc(O[C@H]2CCN(CCCF)C2)cc1` [Example 207, 6-(4,4-difluorocyclohexen-1-yl)-5-[4-[(3S)-1-(3-fluoropropyl)pyrrolidin-3-yl]oxyphenyl]-8,9-dihydro-7H-benzo[7]annulen-2-ol], for which the IC50 was 0.3 nM. On to `CC(F)(F)c1ccc(C2=C(c3ccc(O[C@H]4CCN(CCCF)C4)cc3)c3ccc(O)cc3CCC2)cc1` [Example 201, 6-[4-(1,1-difluoroethyl)phenyl]-5-[4-[(3S)-1-(3-fluoropropyl)pyrrolidin-3-yl]oxyphenyl]-8,9-dihydro-7H-benzo[7]annulen-2-ol], for which the IC50 was 0.02 nM. To `CCN1CCc2cc(C3=C(c4ccc(O[C@H]5CCN(CCCF)C5)cc4)c4ccc(O)cc4CCC3)ccc21` [Example 106, 6-(1-ethylindolin-5-yl)-5-[4-[(3S)-1-(3-fluoropropyl)pyrrolidin-3-yl]oxyphenyl]-8,9-dihydro-7H-benzo[7]annulen-2-ol] belongs 1 nM; to `CCOc1ccc(C2=C(c3ccc(O[C@H]4CCN(CCCF)C4)cc3)c3ccc(O)cc3CCC2)c(Cl)c1` [Example 43, 6-(2-chloro-4-ethoxy-phenyl)-5-[4-[(3S)-1-(3-fluoropropyl)pyrrolidin-3-yl]oxyphenyl]-8,9-dihydro-7H-benzo[7]annulen-2-ol], 0.4 nM; to `Oc1ccc2c(c1)CCCC(c1ccc(Cl)nc1)=C2c1ccc(O[C@H]2CCN(CCCF)C2)cc1` [Example 127, 6-(6-chloro-3-pyridyl)-5-[4-[(3S)-1-(3-fluoropropyl)pyrrolidin-3-yl]oxyphenyl]-8,9-dihydro-7H-benzo[7]annulen-2-ol], 0.1 nM. In the case of `Oc1ccc(C2=C(c3ccc(O[C@H]4CCN(CCCF)C4)cc3)c3ccc(O)cc3CCC2)c(F)c1` [Example 10, 6-(2-fluoro-4-hydroxy-phenyl)-5-[4-[(3S)-1-(3-fluoropropyl)pyrrolidin-3-yl]oxyphenyl]-8,9-dihydro-7H-benzo[7]annulen-2-ol] it was 7 nM. `Oc1ccc2c(c1F)CCCC(c1ccc(Cl)cc1F)=C2c1ccc(O[C@H]2CCN(CCCF)C2)cc1` [Example 121]: the IC50 turned out to be 0.3 nM. Consider `Oc1ccc2c(c1)CCCC(c1ccc3nonc3c1)=C2c1ccc(O[C@H]2CCN(CCCF)C2)cc1` [Example 193, 6-(2,1,3-benzoxadiazol-5-yl)-5-[4-[(3S)-1-(3-fluoropropyl)pyrrolidin-3-yl]oxyphenyl]-8,9-dihydro-7H-benzo[7]annulen-2-ol], for which the IC50 amounted to 0.6 nM. Regarding `CC(C)(C)c1ccc(C2=C(c3ccc(O[C@H]4CCN(CCCF)C4)cc3)c3ccc(O)cc3CCC2)cc1` [Example 72, 6-(4-tert-butylphenyl)-5-[4-[(3S)-1-(3-fluoropropyl)pyrrolidin-3-yl]oxyphenyl]-8,9-dihydro-7H-benzo[7]annulen-2-ol], the IC50 amounted to 0.6 nM. As for `CC(C)(C)c1cc(C2=C(c3ccc(O[C@H]4CCN(CCCF)C4)cc3)c3ccc(O)cc3CCC2)cc(F)n1` [Example 172, 6-(6-tert-butyl-2-fluoro-4-pyridyl)-5-[4-[(3S)-1-(3-fluoropropyl)pyrrolidin-3-yl]oxyphenyl]-8,9-dihydro-7H-benzo[7]annulen-2-ol], the IC50 came out at 30 nM. On to `Oc1ccc2c(c1)CCCC(c1ccc(OC(F)F)cc1F)=C2c1ccc(O[C@H]2CCN(CCCF)C2)cc1` [Example 116, 6-[4-(difluoromethoxy)-2-fluoro-phenyl]-5-[4-[(3S)-1-(3-fluoropropyl)pyrrolidin-3-yl]oxyphenyl]-8,9-dihydro-7H-benzo[7]annulen-2-ol], for which the IC50 was determined as 0.1 nM. Take `Oc1ccc2c(c1)CCCC(c1ccc(OCC(F)(F)F)cc1)=C2c1ccc(O[C@H]2CCN(CCCF)C2)cc1` [Example 119, 5-[4-[(3S)-1-(3-fluoropropyl)pyrrolidin-3-yl]oxyphenyl]-6-[4-(2,2,2-trifluoroethoxy)phenyl]-8,9-dihydro-7H-benzo[7]annulen-2-ol]: the IC50 was found to be 0.7 nM. As to `Cc1nc2cc(C3=C(c4ccc(O[C@H]5CCN(CCCF)C5)cc4)c4ccc(O)cc4CCC3)ccc2[nH]1` [Example 176, 5-[4-[(3S)-1-(3-fluoropropyl)pyrrolidin-3-yl]oxyphenyl]-6-(2-methyl-1H-benzimidazol-5-yl)-8,9-dihydro-7H-benzo[7]annulen-2-ol], the IC50 is 5 nM. Take `COc1cc(C2=C(c3ccc(O[C@H]4CCN(CCCF)C4)cc3)c3ccc(O)cc3CCC2)ccn1` [Example 109, 5-[4-[(3S)-1-(3-fluoropropyl)pyrrolidin-3-yl]oxyphenyl]-6-(2-methoxy-4-pyridyl)-8,9-dihydro-7H-benzo[7]annulen-2-ol]: the IC50 was found to be 0.2 nM.

As to `O=C(O)c1ccc2c(c1)CCCC(c1ccc3ocnc3c1)=C2c1ccc(O[C@H]2CCN(CCCF)C2)cc1` [Example 218, 6-Benzooxazol-5-yl-5-{4-[(S)-1-(3-fluoro-propyl)-pyrrolidin-3-yloxy]-phenyl}-8,9-dihydro-7H-benzocycloheptene-2-carboxylic acid], the IC50 turned out to be 1 nM.

For `Oc1ccc2c(c1)CCCC(c1cncc(F)c1)=C2c1ccc(O[C@H]2CCN(CCCF)C2)cc1` [Example 90, 5-[4-[(3S)-1-(3-fluoropropyl)pyrrolidin-3-yl]oxyphenyl]-6-(5-fluoro-3-pyridyl)-8,9-dihydro-7H-benzo[7]annulen-2-ol], the IC50 came to 0.4 nM. As to `Oc1ccc2c(c1)CCCC(c1ccc(S(F)(F)(F)(F)F)cc1)=C2c1ccc(O[C@H]2CCN(CCCF)C2)cc1` [Example 184, 5-[4-[(3S)-1-(3-fluoropropyl)pyrrolidin-3-yl]oxyphenyl]-6-[4-(pentafluorosulfanyl)phenyl]-8,9-dihydro-7H-benzo[7]annulen-2-ol], the IC50 was determined as 1 nM.

As to `COc1cc(C)c(C2=C(c3ccc(O[C@H]4CCN(CCCF)C4)cc3)c3ccc(O)cc3CCC2)cc1C` [Example 92, 5-[4-[(3S)-1-(3-fluoropropyl)pyrrolidin-3-yl]oxyphenyl]-6-(4-methoxy-2,5-dimthyl-phenyl)-8,9-dihydro-7H-benzo[7]annulen-2-ol], the IC50 stood at 0.5 nM.

On to `Oc1ccc2c(c1F)CCCC(c1ccc(F)cc1C(F)(F)F)=C2c1ccc(O[C@H]2CCN(CCCF)C2)cc1` [Example 115, 1-fluoro-5-[4-[(3S)-1-(3-fluoropropyl)pyrrolidin-3-yl]oxyphenyl]-6-[4-fluoro-2-(trifluoromethyl)phenyl]-8,9-dihydro-7H-benzo[7]annulen-2-ol], for which the IC50 turned out to be 0.3 nM. Take `Oc1ccc2c(c1)CCCC(c1ccc(Cl)c(F)c1)=C2c1ccc(O[C@H]2CCN(CCCF)C2)cc1` [Example 16, 6-(4-chloro-3-fluoro-phenyl)-5-[4-[(3S)-1-(3-fluoropropyl)pyrrolidin-3-yl]oxyphenyl]-8,9-dihydro-7H-benzo[7]annulen-2-ol]: the IC50 was 3 nM. `Cc1ccc(C2=C(c3ccc(O[C@H]4CCN(CCCF)C4)cc3)c3ccc(O)c(F)c3CCC2)c(F)c1` [Example 45, 1-fluoro-6-(2-fluoro-4-methyl-phenyl)-5-[4-[(3S)-1-(3-fluoropropyl)pyrrolidin-3-yl]oxyphenyl]-8,9-dihydro-7H-benzo[7]annulen-2-ol]: the IC50 worked out at 0.7 nM.

As to `Oc1ccc2c(c1)CCCC(c1ccc3c(c1)OCCO3)=C2c1ccc(O[C@H]2CCN(CCCF)C2)cc1` [Example 49, 6-(2,3-dihydro-1,4-benzodioxin-6-yl)-5-[4-[(3S)-1-(3-fluoropropyl)pyrrolidin-3-yl]oxyphenyl]-8,9-dihydro-7H-benzo[7]annulen-2-ol], the IC50 was 0.4 nM. Regarding `Cc1cc(C2=C(c3ccc(O[C@H]4CCN(CCCF)C4)cc3)c3ccc(O)c(F)c3CCC2)ccc1Cl` [Example 113, 6-(4-chloro-3-methyl-phenyl)-1-fluoro-5-[4-[(3S)-1-(3-fluoropropyl)pyrrolidin-3-yl]oxyphenyl]-8,9-dihydro-7H-benzo[7]annulen-2-ol], the IC50 came to 0.6 nM.

Take `CC(C)(C)OC(=O)N1CC=C(C2=C(c3ccc(O[C@H]4CCN(CCCF)C4)cc3)c3ccc(O)cc3CCC2)CC1` [Example 24, 4-(5-{4-[(S)-1-(3-fluoro-propyl)-pyrrolidin-3-yloxy]-phenyl}-2-hydroxy-8,9-dihydro-7H-benzocyclohepten-6-yl)-3,6-dihydro-2H-pyridine-1-carboxylic acid tert-butyl ester]: the IC50 was 63 nM. For the compound `Cc1cc(F)ccc1C1=C(c2ccc(O[C@H]3CCN(CCCF)C3)cc2)c2ccc(O)cc2CCC1` [Example 17, 6-(4-fluoro-2-methyl-phenyl)-5-[4-[(3S)-1-(3-fluoropropyl)pyrrolidin-3-yl]oxyphenyl]-8,9-dihydro-7H-benzo[7]annulen-2-ol], the IC50 was 0.2 nM.
